In PubChem BioAssay AID1745853 (National Center for Advancing Translational Sciences (NCATS), 2022) one finds activity change, negative = inhibition data, which are given here for 29 compounds.

Assay in all cases: Primary Screen for Target Class Profiling of Small Molecule Inhibitors of Methyltransferases
In assay [1] the target is Glycine N-methyltransferase (Homo sapiens) (UniProt Q14749). The settings on record: purified enzyme, MTase-Glo SAH luminescence; measured here: GNMT inhibition; at 40 µM; stronger effect = lower value. In outline: (§1)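 Each enzyme was assayed with SAM and its substrate. SAH formation detected by MTase-Glo luminescence; single-point 40 uM screen[…].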
Assay [2] addresses Guanidinoacetate N-methyltransferase (Homo sapiens) (UniProt Q14353). The settings on record: purified enzyme, MTase-Glo SAH luminescence; measured here: GAMT inhibition; at 40 µM; stronger effect = lower value. In short, it runs like this: as §1
The target of assay [3] is Histamine N-methyltransferase (Homo sapiens) (UniProt P50135). The following applies: purified enzyme, MTase-Glo SAH luminescence; measured here: HNMT inhibition; at 40 µM; stronger effect = lower value. In outline: as §1
Assay [4] deals with Nicotinamide N-methyltransferase (Homo sapiens) (UniProt P40261). The settings on record: purified enzyme, MTase-Glo SAH luminescence; measured here: NNMT inhibition; at 40 µM; stronger effect = lower value. In short, it runs like this:
as §1

Assay [5] deals with Phenylethanolamine N-methyltransferase (Homo sapiens) (UniProt P11086). The following applies: purified enzyme, MTase-Glo SAH luminescence; measured here: PNMT inhibition; at 40 µM; stronger effect = lower value. In short, it runs like this: as §1

The structures appear in SMILES notation. Some of the results follow. These are further read-outs of the screen, such as a control signal, another cell line or another target. No call is given for them.
% is scaled to controls: 0 for no effect and ±100 for the full control effect.

For the compound `Cc1ccc(CNC(=O)C2(C)Cn3cnc(C(=O)N4CCCCC4)c3C(=O)N2C2CC2)cc1` (configuration not stated), the activity change, negative = inhibition in assay [1] was -0.556%; in assay [2], 0%; in assay [3], 8.96%; in assay [4], 4.29%; in assay [5], 1.42%.

As to `CC1(C(=O)NC2CCCCCCC2)Cn2c(ccc2-c2ccco2)C(=O)N1CCN1CCCCCC1` (configuration not stated), the activity change, negative = inhibition is -3.94% in assay [1]; 3.48% in assay [2]; -7.8% in assay [3]; -7.55% in assay [4]; -2.52% in assay [5].

For the compound `Cc1ccc(Cn2c(=O)c3ccc(C(=O)NCC(C)C)cc3n3c(=O)n(CC(=O)NC(C)C)nc23)cc1`, the activity change, negative = inhibition in assay [1] is -0.353%; in assay [2], 1.03%; in assay [3], 0.121%; in assay [4] it was -4.12%; in assay [5], 2.98%.

For the compound `NC1=NC2(c3cc(NC(=O)c4ccc(F)cn4)ccc3F)COCC2CS1` (configuration not stated), the activity change, negative = inhibition in assay [1] is 1.29%; in assay [3] it was -6.13%.

With `CCN1C(=O)c2cc(C(=O)NCCCN3CCCCC3)nn2CC1(C)C(=O)NC1CCCC1` (configuration not stated), the activity change, negative = inhibition is 9.08% in assay [1]; 4.07% in assay [2]; -4.94% in assay [3]; 10.8% in assay [4]; 7.96% in assay [5].

As for `C=CCOc1c(OC)ccc2c1CN(Cc1ccccc1)C(=O)CCN2CC(O)COc1ccc(OC)cc1` (configuration not stated), the activity change, negative = inhibition in assay [1] is -8.93%; in assay [2], 0.044%; in assay [3], -1.97%; in assay [4] it was -32.1%; in assay [5], -1.36%.

As for `COCCCNC(=O)CCc1nnc2n(Cc3ccc(Cl)cc3)c(=O)c3ccccc3n12`, the activity change, negative = inhibition in assay [1] was -10.9%; in assay [2], 0.153%; in assay [3] it was -7.57%; in assay [4], -1.73%; in assay [5] it was -7.55%.

On to `CCc1cccc(N2C(=O)c3cc(C(=O)OC)nn3CC2(C)C(=O)NC2CCCCC2)c1` (configuration not stated), for which the activity change, negative = inhibition in assay [1] was determined as 7.69%; in assay [2] it was 0%; in assay [3], 5.65%; in assay [4], 9.48%; in assay [5], 9.35%.

Regarding `COC(=O)/C=C/c1ccc(O[C@@H]2O[C@H](CO)[C@@H](O)[C@H](O)[C@H]2O)cc1`, the activity change, negative = inhibition was 3.46% in assay [1]; -0.08% in assay [2]; 10.8% in assay [3]; -14.8% in assay [4]; 6.21% in assay [5].

Consider `CCc1ccc(S(=O)(=O)c2nnn3c2nc(NCCNC(C)=O)c2ccccc23)cc1`, for which the activity change, negative = inhibition in assay [1] is -15.3%; in assay [2], 3.41%; in assay [3] it was 1.01%; in assay [4], -14.5%; in assay [5], -2.93%.

On to `COc1ccc(S(=O)(=O)c2nnn3c2nc(Nc2ccccc2C)c2ccccc23)cc1`, for which the activity change, negative = inhibition was -3.4% in assay [1]; 0% in assay [2]; 0.254% in assay [3]; -2.19% in assay [4]; -2.35% in assay [5].

`O=C(C1CCCN1[S+](=O)([O-])c1cccc(C(F)(F)F)c1)N1CCC(N2Cc3cccn3C2=O)CC1` (configuration not stated): the activity change, negative = inhibition is -1.65% in assay [1]; -0.669% in assay [2]; 0.35% in assay [3]; -2.9% in assay [4]; 4.7% in assay [5].

Take `COc1ccc(Cl)cc1NC(=O)N1CCn2c(C)ccc2C1C(C)C` (configuration not stated): the activity change, negative = inhibition was 10.8% in assay [1]; 0% in assay [2]; 6.08% in assay [3]; -3.02% in assay [4]; 4.92% in assay [5].

With `O=C(NCc1ccccc1)c1ccc2c(=O)nc3c(-c4ccccc4F)n[nH]n3c2c1`, the activity change, negative = inhibition in assay [1] is -31.1%; in assay [2], 3.19%; in assay [3], -2.32%; in assay [4], 1.09%; in assay [5] it was -2.49%.

`COC(=O)c1cc2n(n1)CC(C)(C(=O)NC1CCC(C)CC1)N(c1cccc(C)c1C)C2=O` (configuration not stated): the activity change, negative = inhibition in assay [1] came to 5.3%; in assay [2], 1.46%; in assay [3], 2.65%; in assay [4], 6.48%; in assay [5] it was 4.19%.

`C/C=C/c1cc(OC)c2c(c1)[C@@H](C)[C@@H](c1ccc(O)c(OC)c1)O2`: the activity change, negative = inhibition was 1.42% in assay [1]; 3.01% in assay [2]; 12.2% in assay [3]; -5.83% in assay [4]; 0.586% in assay [5].

As for `CCS(=O)(=O)N1CCC(CCOC)(NC(=O)C2CC2)CC1`, the activity change, negative = inhibition in assay [1] was 0.472%; in assay [2], -0.14%; in assay [3], 2.63%; in assay [4], -0.408%; in assay [5], 0.612%.

With `CC1(C(=O)NC2CCCCCC2)Cn2c(cc3occc32)C(=O)N1C1CCCCC1` (configuration not stated), the activity change, negative = inhibition is -2.79% in assay [1]; 1.56% in assay [2]; 5.04% in assay [3]; -10.5% in assay [4]; -4.59% in assay [5].

As to `CCCn1c(=O)c2ccc(C(=O)NC(C)C)cc2n2c(SCC(=O)Nc3ccc(Cl)cc3)nnc12`, the activity change, negative = inhibition was 2.49% in assay [1]; 0% in assay [2]; 8.4% in assay [3]; 0.164% in assay [4]; 4.52% in assay [5].

As for `Cc1cc(CN2CCc3nn(C)c(=O)n3CC2)n(C)n1`, the activity change, negative = inhibition in assay [1] is -0.883%; in assay [2], -5.11%; in assay [3], 0.978%; in assay [4] it was 0.607%; in assay [5], 1.99%.

`COc1cc(/C=C/C(=O)OC[C@H]2O[C@@H](OC3OC=C(C(=O)O)C4C(O)CC(C)(O)C34)[C@H](O)[C@@H](O)[C@@H]2O)cc(OC)c1O` (some centres not stated): the activity change, negative = inhibition is 4.45% in assay [1]; 7.85% in assay [2]; 8.85% in assay [3]; -3.61% in assay [4]; 7.8% in assay [5].

For the compound `C=C1CC2C3(C)C=CC(=O)OC(C)(C)C3CC(OC(C)=O)C2(C)C2C(=O)OC(C)C(=O)C12C` (configuration not stated), the activity change, negative = inhibition was 2.86% in assay [1]; 4.93% in assay [2]; 6.07% in assay [3]; -9.93% in assay [4]; 1.81% in assay [5].

Regarding `COCCC1(NC(=O)c2ccccc2)CCN(C(=O)c2ocnc2C)CC1`, the activity change, negative = inhibition in assay [1] was -0.199%; in assay [2], -1.35%; in assay [3], 0.732%; in assay [4] it was 0.405%; in assay [5] it was -0.814%.

In the case of `CCN(CC)CCNC(=O)c1cc2n(n1)CC(C)(C(=O)NCc1ccc(F)cc1)N(C)C2=O` (configuration not stated), the activity change, negative = inhibition in assay [1] stood at 10.1%; in assay [2], 0%; in assay [3], 6.27%; in assay [4], 10.7%; in assay [5], 4.07%.

As for `COc1cc(CNC(=O)c2nc(C(O)c3ccccn3)oc2C)cc(OC)c1` (configuration not stated), the activity change, negative = inhibition in assay [1] is -7.12%; in assay [2] it was -1.66%; in assay [3], -1.66%; in assay [4] it was -11.3%; in assay [5], -12.1%.

For `COc1ccc(C(=O)CSc2nnc3n(C)c(=O)c4ccc(C(=O)NC5CCCCC5)cc4n23)cc1`, the activity change, negative = inhibition in assay [1] stood at 2.54%; in assay [2], 0%; in assay [3] it was 2.65%; in assay [4], 2.31%; in assay [5], 4.06%.

Regarding `CCCn1c(=O)c2ccccc2n2c(=O)n(CC(=O)Nc3ccc(C)cc3C)nc12`, the activity change, negative = inhibition in assay [1] was 0.229%; in assay [2], 2.83%; in assay [3], 3.74%; in assay [4], -0.227%; in assay [5], 1.27%.

`Nc1ccc(-c2nc3ccc(-c4nc5ccc(N)cc5[nH]4)cc3[nH]2)cc1`: the activity change, negative = inhibition in assay [1] is -22%; in assay [2] it was -10.7%; in assay [3] it was -13.4%; in assay [4] it was -15%; in assay [5], -18.3%.

In the case of `Cc1cc(C)cc(NC(=O)Cn2c(=O)oc3cc(S(=O)(=O)N4CCCCC4)ccc32)c1`, the activity change, negative = inhibition in assay [1] is -3.42%; in assay [2], -0.109%; in assay [3], -2.85%; in assay [4], 1.02%; in assay [5] it was -10.3%.
